Some of the results follow. No stated cut-off is given here; in the data, active = 3.2 or more and inactive = the rest. Only a few entries rise above the background.
Key:
Assay in all cases: enrichment score (SH2-bound / input frequency) (ratio); bacterial display of known human phosphotyrosine sites (pTyr-Var adds point mutants) read by sequencing; higher = stronger binding; tyrosines were phosphorylated by kinases first
Details in all cases: peptide library: pTyr-Var
SHP2 C-SH2 domain E139D = target: SHP2 C-SH2 domain E139D
[1] = target: SHP2 C-SH2 domain wild-type
SHP2 N-SH2 domain L43F = target: SHP2 N-SH2 domain L43F
SHP2 N-SH2 domain T42A = target: SHP2 N-SH2 domain T42A
SHP2 N-SH2 domain T52S = target: SHP2 N-SH2 domain T52S
[2] = target: SHP2 N-SH2 domain wild-type

Measured: enrichment score
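Further: displayed peptides selected on beads carrying the immobilized SH2 domain, with library peptides lacking any tyrosine serving as negative controls.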

PATFTYDEFKK [COL8A2_Y648_YF]
inactive: SHP2 C-SH2 domain E139D 1.25 | [1] 0.867 | SHP2 N-SH2 domain L43F 0.905 | SHP2 N-SH2 domain T42A 0.758 | SHP2 N-SH2 domain T52S 0.818 | [2] 1.24

CLAKMYYSAVD [CP_Y539]
inactive: SHP2 C-SH2 domain E139D 1.03 | [1] 0.815 | SHP2 N-SH2 domain L43F 0.767 | SHP2 N-SH2 domain T42A 0.75 | SHP2 N-SH2 domain T52S 0.718 | [2] 0.95

SSNLYYRCLTA [CNGA3_Y169_W171C]
inactive: SHP2 C-SH2 domain E139D 0.675 | [1] 0.985 | SHP2 N-SH2 domain L43F 0.654 | SHP2 N-SH2 domain T42A 0.74 | SHP2 N-SH2 domain T52S 0.779 | [2] 1.09

GQLIFYAPPEW [CNTN6_Y315]
inactive: SHP2 C-SH2 domain E139D 1.44 | [1] 1.18 | SHP2 N-SH2 domain L43F 1.74 | SHP2 N-SH2 domain T42A 2.9 | SHP2 N-SH2 domain T52S 1.72 | [2] 1.33

FVHDNYVIWRT [CPS1_Y1450_R1453W]
inactive: SHP2 C-SH2 domain E139D 1.43 | [1] 1.55 | SHP2 N-SH2 domain L43F 1.71 | SHP2 N-SH2 domain T42A 1.49 | SHP2 N-SH2 domain T52S 1.37 | [2] 1.62

KSLFHYRQYSA [CPS1_Y1491]
inactive: SHP2 C-SH2 domain E139D 0.322 | [1] 0.315 | SHP2 N-SH2 domain L43F 0.417 | SHP2 N-SH2 domain T42A 0.52 | SHP2 N-SH2 domain T52S 0.422 | [2] 0.528

TFEFRYLEDQD [CNOT3_Y746_R750Q_YF]
inactive: SHP2 C-SH2 domain E139D 0.687 | [1] 0.724 | SHP2 N-SH2 domain L43F 0.752 | SHP2 N-SH2 domain T42A 0.7 | SHP2 N-SH2 domain T52S 0.604 | [2] 0.711

CLAKMYFSAVE [CP_Y539_D544E_YF]
inactive: SHP2 C-SH2 domain E139D 1.29 | [1] 1.37 | SHP2 N-SH2 domain L43F 1.23 | SHP2 N-SH2 domain T42A 1.22 | SHP2 N-SH2 domain T52S 1.2 | [2] 1.43

PSSNLYYRCLT [CNGA3_Y168_W171C]
inactive: SHP2 C-SH2 domain E139D 0.597 | [1] 0.679 | SHP2 N-SH2 domain L43F 0.662 | SHP2 N-SH2 domain T42A 0.666 | SHP2 N-SH2 domain T52S 0.578 | [2] 0.671

DGLALYTGSAL [COL6A3_Y524_S521L]
inactive: SHP2 C-SH2 domain E139D 0.717 | [1] 0.915 | SHP2 N-SH2 domain L43F 0.877 | SHP2 N-SH2 domain T42A 0.682 | SHP2 N-SH2 domain T52S 0.641 | [2] 1.01

DESEDYRDTVV [CNNM3_Y456]
inactive: SHP2 C-SH2 domain E139D 0.448 | [1] 0.565 | SHP2 N-SH2 domain L43F 0.48 | SHP2 N-SH2 domain T42A 0.457 | SHP2 N-SH2 domain T52S 0.433 | [2] 0.843

VAVVQYSGTGQ [COL6A1_Y878]
inactive: SHP2 C-SH2 domain E139D 0.933 | [1] 0.706 | SHP2 N-SH2 domain L43F 1.26 | SHP2 N-SH2 domain T42A 0.845 | SHP2 N-SH2 domain T52S 1.1 | [2] 0.989

KGERGYPGTPG [COL4A1_Y348]
inactive: SHP2 C-SH2 domain E139D 0.703 | [1] 0.615 | SHP2 N-SH2 domain L43F 0.551 | SHP2 N-SH2 domain T42A 0.542 | SHP2 N-SH2 domain T52S 0.618 | [2] 0.606

VTPVMYTFDEF [COL10A1_Y623_G618V_YF]
inactive: SHP2 C-SH2 domain E139D 1.18 | [1] 0.948 | SHP2 N-SH2 domain L43F 1.81 | SHP2 N-SH2 domain T42A 0.866 | SHP2 N-SH2 domain T52S 2.25 | [2] 1.17

TARREYMHSPS [CPOX_Y429_W427R]
inactive: SHP2 C-SH2 domain E139D 0.288 | [1] 0.267 | SHP2 N-SH2 domain L43F 0.331 | SHP2 N-SH2 domain T42A 0.366 | SHP2 N-SH2 domain T52S 0.347 | [2] 0.281

FSLPAFMDRRD [COX4I1_Y38_Y38F]
inactive: SHP2 C-SH2 domain E139D 0.948 | [1] 0.839 | SHP2 N-SH2 domain L43F 0.865 | SHP2 N-SH2 domain T42A 0.885 | SHP2 N-SH2 domain T52S 0.847 | [2] 0.86

DEIPLYLKGGV [COX7A2_Y44]
inactive: SHP2 C-SH2 domain E139D 0.676 | [1] 0.582 | SHP2 N-SH2 domain L43F 0.731 | SHP2 N-SH2 domain T42A 0.511 | SHP2 N-SH2 domain T52S 0.638 | [2] 0.706

TSSAGYRAAEG [COL6A3_Y543]
inactive: SHP2 C-SH2 domain E139D 0.469 | [1] 0.523 | SHP2 N-SH2 domain L43F 0.485 | SHP2 N-SH2 domain T42A 0.499 | SHP2 N-SH2 domain T52S 0.438 | [2] 0.541

GVLKEYGVKVL [CPS1_Y529]
inactive: SHP2 C-SH2 domain E139D 1.2 | [1] 1.01 | SHP2 N-SH2 domain L43F 1.15 | SHP2 N-SH2 domain T42A 1.18 | SHP2 N-SH2 domain T52S 1.01 | [2] 1.01

QNWELYSEGLG [CNKSR1_Y665_R662W]
inactive: SHP2 C-SH2 domain E139D 0.844 | [1] 0.82 | SHP2 N-SH2 domain L43F 0.931 | SHP2 N-SH2 domain T42A 0.79 | SHP2 N-SH2 domain T52S 0.982 | [2] 0.963

PATYTYDEYKK [COL8A2_Y648]
inactive: SHP2 C-SH2 domain E139D 0.644 | [1] 0.54 | SHP2 N-SH2 domain L43F 0.681 | SHP2 N-SH2 domain T42A 0.59 | SHP2 N-SH2 domain T52S 0.373 | [2] 0.531

PGPPGYCDSSQ [COL12A1_Y3043]
inactive: SHP2 C-SH2 domain E139D 0.646 | [1] 0.672 | SHP2 N-SH2 domain L43F 0.58 | SHP2 N-SH2 domain T42A 0.597 | SHP2 N-SH2 domain T52S 0.672 | [2] 1.59

QNRELYSEGLG [CNKSR1_Y665]
inactive: SHP2 C-SH2 domain E139D 0.612 | [1] 0.511 | SHP2 N-SH2 domain L43F 0.825 | SHP2 N-SH2 domain T42A 0.611 | SHP2 N-SH2 domain T52S 0.467 | [2] 0.617

PGLRGYPGLSG [COL4A2_Y306]
inactive: SHP2 C-SH2 domain E139D 1.02 | [1] 0.876 | SHP2 N-SH2 domain L43F 1.12 | SHP2 N-SH2 domain T42A 0.854 | SHP2 N-SH2 domain T52S 0.828 | [2] 1.16

LSSNLYYRWLT [CNGA3_Y168_P163L]
inactive: SHP2 C-SH2 domain E139D 2.65 | [1] 2.56 | SHP2 N-SH2 domain L43F 2.44 | SHP2 N-SH2 domain T42A 1.58 | SHP2 N-SH2 domain T52S 2.33 | [2] 1.63

FVHDNYVIQRT [CPS1_Y1450_R1453Q]
inactive: SHP2 C-SH2 domain E139D 0.938 | [1] 0.707 | SHP2 N-SH2 domain L43F 0.831 | SHP2 N-SH2 domain T42A 0.777 | SHP2 N-SH2 domain T52S 0.578 | [2] 0.85

MSSAGYRAAEG [COL6A3_Y543_T538M]
inactive: SHP2 C-SH2 domain E139D 0.584 | [1] 0.522 | SHP2 N-SH2 domain L43F 0.591 | SHP2 N-SH2 domain T42A 0.538 | SHP2 N-SH2 domain T52S 0.543 | [2] 0.555

ETGNLYIAKVE [CNTN4_Y180]
inactive: SHP2 C-SH2 domain E139D 0.775 | [1] 0.95 | SHP2 N-SH2 domain L43F 0.846 | SHP2 N-SH2 domain T42A 0.647 | SHP2 N-SH2 domain T52S 0.801 | [2] 0.933

PGPPGYCDSSH [COL12A1_Y3043_Q3048H]
inactive: SHP2 C-SH2 domain E139D 0.789 | [1] 0.803 | SHP2 N-SH2 domain L43F 0.645 | SHP2 N-SH2 domain T42A 0.738 | SHP2 N-SH2 domain T52S 0.841 | [2] 0.841

KFGTNYRVGSS [CPO_Y278_YF]
inactive: SHP2 C-SH2 domain E139D 0.817 | [1] 0.82 | SHP2 N-SH2 domain L43F 1.03 | SHP2 N-SH2 domain T42A 0.692 | SHP2 N-SH2 domain T52S 0.931 | [2] 1.01

VAVVQYSGMGQ [COL6A1_Y878_T881M]
inactive: SHP2 C-SH2 domain E139D 0.798 | [1] 0.693 | SHP2 N-SH2 domain L43F 1.35 | SHP2 N-SH2 domain T42A 0.949 | SHP2 N-SH2 domain T52S 1.17 | [2] 1.04

MPLTEYLKQIK [CNGB3_Y200_R203Q]
inactive: SHP2 C-SH2 domain E139D 0.744 | [1] 0.773 | SHP2 N-SH2 domain L43F 0.742 | SHP2 N-SH2 domain T42A 0.771 | SHP2 N-SH2 domain T52S 0.967 | [2] 0.902

PGLKGYPGLSG [COL4A2_Y306_R304K]
inactive: SHP2 C-SH2 domain E139D 0.887 | [1] 0.837 | SHP2 N-SH2 domain L43F 0.975 | SHP2 N-SH2 domain T42A 0.857 | SHP2 N-SH2 domain T52S 1.16 | [2] 1.16

SSNLFYRCLTA [CNGA3_Y169_W171C_YF]
inactive: SHP2 C-SH2 domain E139D 0.644 | [1] 0.93 | SHP2 N-SH2 domain L43F 0.867 | SHP2 N-SH2 domain T42A 1.36 | SHP2 N-SH2 domain T52S 0.745 | [2] 1.26

LAVPLYKNGVK [CPS1_Y1069]
inactive: SHP2 C-SH2 domain E139D 0.99 | [1] 0.725 | SHP2 N-SH2 domain L43F 0.903 | SHP2 N-SH2 domain T42A 0.782 | SHP2 N-SH2 domain T52S 0.896 | [2] 0.733

CLAKMYYSAVE [CP_Y539_D544E]
inactive: SHP2 C-SH2 domain E139D 1.01 | [1] 1.18 | SHP2 N-SH2 domain L43F 1.03 | SHP2 N-SH2 domain T42A 0.935 | SHP2 N-SH2 domain T52S 0.914 | [2] 1.42

GTPVMYTFDEF [COL10A1_Y623_YF]
inactive: SHP2 C-SH2 domain E139D 0.972 | [1] 1.12 | SHP2 N-SH2 domain L43F 0.865 | SHP2 N-SH2 domain T42A 0.892 | SHP2 N-SH2 domain T52S 1.09 | [2] 1.29

— the supplement of paper PMC10369915
